Data from the RNAGym collection of RNA variant scans (doi:10.1093/nar/gkz1192).
Read counts are not given, so values of variants with three or more changes are uncertain.

B1: CPEB3 Ribozyme (parent)
chain: UAACAGGGGGCCACAGCAGAAGCGUUCACGUCGCAGCCCCUGUCAGAUUCUGGUGAAUCUGCGAAUUCUGCUGUAUAUCUC

Variants of: B1
Assay: self-cleavage, relative activity (ratio to wild type); higher = more cleavage; in vitro, sequencing
Outline: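 Libraries of CPEB3 self-cleaving ribozyme mutants came from rounds of error-prone PCR and carried barcodes, which DNA sequencing matched to variants. In vitro transcription used T7 RNA polymerase at 37°C for 5 hours, with a further 15 min in DNase I before EDTA stopped the reaction; the ribozymes cleaved during both steps. The RNA was reverse transcribed with template switching and sequenced on Illumina. Relative activity is the cleaved/total read fraction of a variant divided by that of the unmutated ribozyme, averaged over three batches with at least 5 reads.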

| Variant | self-cleavage |
| --- | --- |
| UAACGGGGGCCCGCAGCAGAAGCGUUCACGUCGCAGUCCCUGUCAGAUUCUGGUGAAUCUGCGAAUGCCGCUGAAUAUCUC | 0.04 |
| UAACGGGGGCCCACAGCUGAAGCGUUGACGCCGCAGCCCCUGUCGGAUUAUGGUGAAUCUGCGAAUUCUGCUGUAUAUCUC | 0.23 |
| UAACGGGGGCCCACAGCAGGAGCGUUCACGUCGCAGCCCCUGUCAGAUUCUGGUGAAUCUGCGAUUUCUGCUGUAUAUCUC | 0.3 |
| UAACGGGGGCCCACAGCAGGAGCGUUCACGUCGCAGCCCCUGUAAGAUUCUGGUGAAUCUGCGUAAUCUACUGUAUAUCUC | 0.27 |
| UAACGGGGGCCCACAGCAGAAGCGUUCACGUCGCAGCCCCCGUCAGAUUCUGGUGGAUCUGCGAAUUCUGCUGUAUAUCUC | 0.27 |
| UAACGGGGGCCCACAGCAGAAGCGUUCACGUCGCAGCCCCUGACGGACUCUGGUGAAUCUGCGAAUUCUGCUGUAUAUCUC | 0.32 |
| UAACGGGGGCCCACAGCAGAAGCGUUCACGUCGCAGCCCCUGUCAGAUUCUGGUGAAUCUGCGAAUACUGCUGUAUAUCUC | 0.51 |
| UAACGGGGGUCCACAGCAGCAGCGUUCACGUCGCAGCCCCUGUCAGAUUCUGGUGAAUCCGCGAAUUCUGCUAUAUAUCUC | 0.56 |
| UAACGGGGGUCCACAGCAGUAGCGUUCACGUCGCAGCCCCUGUCAGAUUCUGAUGAAUCUGCGAAUUCUGCUGUAUAUCUC | 0.36 |
| UAACGGGGGGCCACAACUGAAGCGUUCACGUCGCAGCCCCUGUCAGAUUCUGGUGAAUCUGCGGAUUCUGCUGUAUAUCUC | 0.22 |
| UAACGGGGGGCCACAACAGAAGCGUUCACGUCGCAGCCCCUGUCGGAUUCUGGUGAAUCUGCGAAUCCUGCUGUAUAUCUC | 0.14 |
| UAACGGGGGGCCACAACAGAAGCGUUCACGUCGCAGCCCCUGCCAGAUUCUGGUGAAUCUGCGAAUUCUGCUGUAAAUCAC | 0.08 |
| UAACGGGGGGCCACACCAGAAGCGUUCACGUCGCAGCCCCUGUCAGUUUCUGGUGAAUCUGCGAAUUCUGCUGUAUAUCUC | 0.2 |
| UAACGGGGGGCCACAUCAGAAGCGUUCACGUCGCAGCCCCUGUCAGAUUCUGGUGAAUCUGCGGAUUCAGCUGUAUAUCUC | 0.04 |
| UAACGGGGGGCCACAGCAAAAGCGUUCACGUCGCUGCCCCUGUCAGAUUCUGGUGAAUCUGCGAAUUCUGCUGUAUAUCUC | 0.63 |
| UAACGGGGGGCCACAGCACAAGCGUUCUCGUCGCAGCCCCUGUCAGGAUCUGGUGAAUCUGCGAAUUCUGCUGGAUAUCUC | 0.12 |
| UAACGGGGGGCCACAGCAUAAGCGCUCACGUCGCAGCCCCUGUCAGAUUCUGGUGAAUCUGCGAAUUCAGCUGUAUAUCUC | 0.35 |
| UAACGGGGGGCCACAGCAUAAGCGUCCACGUCGCAGCCCCUGUCAGAUUCUGGUGAAUCUGCGAAUUCUGCUGUAUAUCUC | 0.52 |
| UAACGGGGGGCCACAGCAUAAGCGUCCACGUCGCAGCCCCAGUCAGAUUCUGGUGAAUCUGCGAGUUCUGCUGAAUAUCUC | 0.1 |
| UAACGGGGGGCCACAGCAUAAGCGUUCACGUCGCAGCCCCAGUCAGAUUCUGGUGAAUCUGCGUAUUCUCCUGUAUAUCUC | 0.16 |
| UAACGGGGGGCCACAGCAGAAACGCUCACGUCGCAGCCCCUGUCAGAUUCUGGUGAAUCCGCGAAUUCUGCUGUAUAUCUC | 0.07 |
| UAACGGGGGGCCACAGCAGAAACGUUCACGUCGCAGCCCCUGUCAGAUUCUGGUGAAUCUGCGAAUUCUGCUGUAUAACUC | 0.08 |
| UAACGGGGGGCCACAGCAGAAUCGUACACGUCGCAGCCCCUGUCAGAUUCUGGUGAAUCUGCGAAUUCUGCUGUAUAUCUC | 0.37 |

| Variant | self-cleavage |
| --- | --- |
| UAACGGGGGGCCACAGCAGAAGCAUUCGCGUCGCAGCCCCUGUCCGAUCCUGGUGAAUCUGCGGAUUCUGCUGUAUAUCUC | 0.39 |
| UAACGGGGGGCCACAGCAGAAGCAUUCACGUCGCUGCCCCUGUCAGAUUCUGGUGGAUCUGCGAAUUCUGCUGUAUAUCCC | 0.1 |
| UAACGGGGGGCCACAGCAGAAGCAUUCACGUCGCAGCCCCUGUCAGAUUCUGGUGAGUCUGCGAAUUCUGCUGUAUAUCUC | 0.44 |
| UAACGGGGGGCCACAGCAGAAGCAUUCACGUCUCAACCCCUGCCAGAUUCUGGUGAAACUGCGAACUCUGCUGUAUAUCUC | 0.05 |
| UAACGGGGGGCCACAGCAGAAGCUUUCACGUCGCAGCCCCCGCCCGAUUCUGGUGAAUCUGCGAAUUCUGCUGUAUAUCUC | 0.3 |
| UAACGGGGGGCCACAGCAGAAGCGUUCACAUCGCAGCCCCUGUCAGAUUCUGGUGAAUCUGAGAAUUCCGCUGUAUAUCUC | 0.18 |
| UAACGGGGGGCCACAGCAGAAGCGUUCACAUCGCAGCCCCUGUCAGAUUCUGGUGAAUCUGCGAAUUCUGCUGUAUAUAUC | 0.39 |
| UAACGGGGGGCCACAGCAGAAGCGUUCACAUCGCAGCCCCUGUCAGAUUCUGGGGAGUCUGCGAAUUCUGCUGUAUGUCUC | 0.19 |
| UAACGGGGGGCCACAGCAGAAGCGUUCACCUCGCAGCCCCUGUCGGAUUCUGGUGAGUCUGCGAAUUCUGCCGUAUAUCUC | 0.07 |
| UAACGGGGGGCCACAGCAGAAGCGUUCACCUCGCAGCCCCUGUCGGAUUCAGGUGAAUCUGCGAAUUCUGCUGAAUAUCUC | 0.07 |
| UAACGGGGGGCCACAGCAGAAGCGUUCACUUCGCAGCCCCUGUCAGAUUCUGGUGAAUCUGCGAAUUCUGCUAAAUAUCUC | 0.1 |
| UAACGGGGGGCCACAGCAGAAGCGUUCACGUCACAGCCCCUGCCAGAUUCUGGUGAACCUGCGAAUUCCGCUGUAUAUCUC | 0.1 |
| UAACGGGGGGCCACAGCAGAAGCGUUCACGUCACAGCCCCUGUCAGAUACUGGUGAAUCUGCGUAUUCUGCUGUAUAUCUC | 0.24 |
| UAACGGGGGGCCACAGCAGAAGCGUUCACGUCCCAGCCCCUGUCAGAUUCUGGUGAAUCUGCGGAUUCUGCUGUAUAUCCC | 0.25 |
| UAACGGGGGGCCACAGCAGAAGCGUUCACGUCCCAGCCCCUGUCAGAUUCUGGAGAAUCUGCGAAUUCUGCUGUAUAUCUC | 0.3 |
| UAACGGGGGGCCACAGCAGAAGCGUUCACGUCGCAACCCCUGUCAGAUUCUGGUGAAGCUGCGAAUUCUGCUGUAUAUCUC | 0.19 |
| UAACGGGGGGCCACAGCAGAAGCGUUCACGUCGCAGCCCCUCCCAGAUUCUGGUGAAUCUGUGUAUUCCGCUGUAUAUCUC | 0.12 |
| UAACGGGGGGCCACAGCAGAAGCGUUCACGUCGCAGCCCCUCUCAGAUUCUGGUGAACCUGCGAAUUCUGCCGUAUAUCUC | 0.11 |
| UAACGGGGGGCCACAGCAGAAGCGUUCACGUCGCAGCCCCUCUCAGAUUCUGGUGAAUCCGCGAAUUCUGCUGUAUAUCUC | 0.11 |
| UAACGGGGGGCCACAGCAGAAGCGUUCACGUCGCAGCCCCUUUCAGAUUCUGUUGAGUCUGCGAAUUCUGCCGUAUAUCUC | 0.06 |
| UAACGGGGGGCCACAGCAGAAGCGUUCACGUCGCAGCCCCUGUCAAAUUCUGGUAAAACUGCGAAUUCUGCUGCAUAUCUC | 0.3 |
| UAACGGGGGGCCACAGCAGAAGCGUUCACGUCGCAGCCCCUGUCAAAUUCUGGUGAAUCUGCUAAUUCUGCUGUAUAUCUC | 0.42 |
| UAACGGGGGGCCACAGCAGAAGCGUUCACGUCGCAGCCCCUGUCAGAUUCUAGAGAAUCUGCGAAUUCUGCUGUAUAUCUC | 0.54 |

| Variant | self-cleavage |
| --- | --- |
| UAACGGGGGGCCACAGCAGAAGCGUUCACGUCGCAGCCCCUGUCAGAUUCUGAUGAAUCUGCGAGUUCUGCUGUAUAUCUC | 0.23 |
| UAACGGGGGGCCACAGCAGAAGCGUUCACGUCGCAGCCCCUGUCAGAUUCUGAUGAAUCUGCGAAUUCUGCUAUAUAUCUC | 1.21 |
| UAACGGGGGGCCACAGCAGAAGCGUUCACGUCGCAGCCCCUGUCAGAUUCUGACGAAUCUGCGAAAUCUGCUGUAUAUCUC | 0.34 |
| UAACGGGGGGCCACAGCAGAAGCGUUCACGUCGCAGCCCCUGUCAGAUUCUGUUGAGUCUGCGAGUUCUGCUGUAUAUUUC | 0.18 |
| UAACGGGGGGCCACAGCAGAAGCGUUCACGUCGCAGCCCCUGUCAGAUUCUGUUGAAUCCGCGAAUUCUGCUGUAUAUCUC | 0.54 |
| UAACGGGGGGCCACAGCAGAAGCGUUCACGUCGCAGCCCCUGUCAGAUUCUGGUUAAUCUGCGAAUUCUGCUGUAUACCUC | 0.35 |
| UAACGGGGGGCCACAGCAGAAGCGUUCACGUCGCAGCCCCUGUCAGAUUCUGGUGAAUCUGCACAUUCUGCUGUAUAUCUC | 0.25 |
| UAACGGGGGGCCACAGCAGAAGCGAUCACGUCGCGGCCCCUGUCAGAUUCUGGUGAAACUGCGAACUCUGCUGUAUAUCCC | 0.1 |
| UAACGGGGGGCCACAGCAGAAGCGAUCACGUCGCAGCCCCUGUCGGAUUCUGGUGAAUCAGCGAAUUCUGCUGUAUAUCUC | 0.1 |
| UAACGGGGGGCCACAGCAGAAGCGAUCACGUCGCAGCCCCUGUCAGAUUCUGGUGAGUCUACGAAUUCUGCUGUUUAUCUC | 0.44 |
| UAACGGGGGGCCACAGCAGAAGCGAUCACGUAGCAGCCCCUGUCAGAUUCUGGUGAAUCCGCGAAUUCUGCUGUAUAUUUC | 0.06 |
| UAACGGGGGGCCACAGCAGAAGCGAUCACGUCGCAGCCCUUGUCAGAUUCUGGUGAAUCUGCGAAUUCUGCUGUAUAUCUC | 0.13 |
| UAACGGGGGGCCACAGCAGAAGCGAUCACGUCGCAGCCCCUGCCAGAUUCUGGUGAAUCUGCGAAUUCUGCUGAAUAUCUC | 0.28 |
| UAACGGGGGGCCACAGCAGAAGCGAUCACGUCGCAGCCCCUGGCAGAUUCUGGUGAAUCUGCGAAUUCUGCUGUAUAUCUC | 0.23 |
| UAACGGGGGGCCACAGCAGAAGCGAUCACGUCGCAGCCCCUGUCAGAUUCUGGUGAAUCCGCGGAUUCUGCUGUAUAUCUC | 0.42 |
| UAACGGGGGGCCACAGCAGAAGCGCUCGCGUCGCAGCCCCUGUCCGAUUCUGGUGAACCUGCGAAUUCAGCUGUAUAUCUC | 0 |
| UAACGGGGGGCCACAGCAGAAGCGCUCGCGUCGCAGCCCCUGACAGAUACUGGUGAAUCUGCGAAUUCUGCUGUAUAUCUC | 0.47 |
| UAACGGGGGGCCACAGCAGAAGCGCUCUCGUCGCAGCCCCUGUCAGAUUCUGGUGAAUCUGCGAACUCUGCUGUCUAUCUC | 0.13 |
| UAACGGGGGGCCACAGCAGAAGCGCUCACGUCGCUGCCCCUGUCAGAUUCUGGUGAAUCUGCGAAUUCUGCUGUAUGCCUC | 0.01 |
| UAACGGGGGGCCACAGCAGAAGCGCUCACGUCGCUGCCCCUGUCAGAUUCCGGUGAAUCUGCGAAUCCUGCUGUAUAUCAC | 0.21 |
| UAACGGGGGGCCACAGCAGAAGCGCUCACGUCGCAGCCCCUGUCGGAUACUGGUGAAUCUGCGAAUUCUGCUGUAUAUCUC | 0.21 |
| UAACGGGGGGCCACAGCAGAAGCGCUCACGUCGCAGCCCCUGUCAGAUUCUGGUGGGUCUGCGAAUUCUGCUGUAUAUCUC | 0.04 |
